Test results as given in article PMC7819943, “Rice protein-binding microarrays: a tool to detect cis-acting elements near promoter regions in rice”.
The other results are listed elsewhere or left out.

The sequences below were run against T1, OsWOX13 (Oryza sativa, UniProt Q5QMM3 1-267) (assay: protein-binding microarray (RPBM); PBS, 2% BSA, 51.3 ng/ul salmon testes DNA, 50 uM zinc acetate, 200 nM TF, 25 C, 1 h; high values mean tight binding). Details: protein: recombinant; tags: N-terminal polyhistidine and DsRed monomer fusion (pET32a); label: CyDye5-dUTP incorporated in the synthesized complementary strand; 3' TTTTT single-stranded linker to array surface; dsDNA, one strand shown.
T1 sequence: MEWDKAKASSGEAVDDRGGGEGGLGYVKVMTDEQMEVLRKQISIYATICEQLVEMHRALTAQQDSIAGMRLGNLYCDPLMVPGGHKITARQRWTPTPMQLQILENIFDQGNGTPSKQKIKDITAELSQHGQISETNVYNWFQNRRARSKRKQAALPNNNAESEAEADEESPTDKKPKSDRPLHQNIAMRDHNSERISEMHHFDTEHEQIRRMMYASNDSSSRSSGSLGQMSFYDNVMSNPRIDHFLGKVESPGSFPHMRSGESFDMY
Method in brief: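 A custom Agilent array was converted to double-stranded form by primer extension with Cy5-dUTP and blocked with 2% BSA. Protein at 200 nM in PBS with 2% BSA, salmon testes DNA and 50 µM zinc acetate was applied for 1 h at 25 °C, followed by washing. The proteins were polyhistidine–DsRed N-terminal fusions of transcription factors, expressed in E. coli BL21-CodonPlus and Ni–NTA-purified. The binding signal is per-feature fluorescence intensity (arbitrary units) from an Axon 4000B scanner.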

Row | Sequence | binding signal
1 | ATTGTGAATTGATGGATCCTCATATTCTTACTATTTTGTTCGGAGTCACCTAGTGCAG | 22500 fluorescence intensity (a.u.)
2 | AGTTATGCTTGATAATTGATATCCACAGCCACAAAATAAACGGAGTCACCTAGTGCAG | 7250 fluorescence intensity (a.u.)
3 | CAAGATTAAGATTAAACCAGGAGAGACCACCCGATCGAGTCGGAGTCACCTAGTGCAG | 5280 fluorescence intensity (a.u.)
4 | AATTATAATCACTTCTCTGTCGAGATCCCCTCCAACATACCGGAGTCACCTAGTGCAG | 3330 fluorescence intensity (a.u.)
5 | ATTTGATTGCACAGAACTGATTGTTGTGCAGACATTACCTCGGAGTCACCTAGTGCAG | 37500 fluorescence intensity (a.u.)
6 | GCAGTGATTAATGGAACAGAAGTCATCCATCCATCCACTGCGGAGTCACCTAGTGCAG | 48600 fluorescence intensity (a.u.)
7 | CTGAAATTATTTTACTGCACCTGGTAACCACGCACAGTAACGGAGTCACCTAGTGCAG | 3200 fluorescence intensity (a.u.)
8 | CCCTTACTGATTGGACGGTCCCGCGCATAAGCATGCGCACCGGAGTCACCTAGTGCAG | 27800 fluorescence intensity (a.u.)
9 | TTTGATGGGCAAAGATTTATGACTCGTGGGCTCATACCAGCGGAGTCACCTAGTGCAG | 19900 fluorescence intensity (a.u.)
10 | GAATCAGATTGGACATATAATCGAGGGAGTCCAACCAGACCGGAGTCACCTAGTGCAG | 12500 fluorescence intensity (a.u.)
11 | TGGAATTGACTTGTTACTAAAATAAATAAATGATCAATAGCGGAGTCACCTAGTGCAG | 11400 fluorescence intensity (a.u.)
12 | CTTAATTAATCATACGCTAATAAGTCACTCCGTTTTACGTCGGAGTCACCTAGTGCAG | 26000 fluorescence intensity (a.u.)
13 | ACTTAATTGCAAAGCAAAGTAACGGATGAGATGCACTAATCGGAGTCACCTAGTGCAG | 24700 fluorescence intensity (a.u.)
14 | CCTCCCATTAACTATTAACTCTTTTCGTAACCCTTTCAGCCGGAGTCACCTAGTGCAG | 3150 fluorescence intensity (a.u.)
15 | TTAAATTTTGAACTTTGATCAGACATATTACAAGAGGTGGCGGAGTCACCTAGTGCAG | 10200 fluorescence intensity (a.u.)
16 | ACCTAAATTAGTAGAACGAATCTTTCCTTTTCTCTCTTTTCGGAGTCACCTAGTGCAG | 15700 fluorescence intensity (a.u.)
17 | TCTTGTTTTCAATTTGATTGCATTTGAATGGCTTCAATGGCGGAGTCACCTAGTGCAG | 11500 fluorescence intensity (a.u.)
18 | GTAACAGACTTGATTAATGTGTACAATATTAAACAGATTGCGGAGTCACCTAGTGCAG | 29600 fluorescence intensity (a.u.)
19 | CCCACCGTTTATTAATTAGAAAATGTATTAATAAATGGCCCGGAGTCACCTAGTGCAG | 14600 fluorescence intensity (a.u.)
20 | TTTGATTTTAGGTCAATGCTCGAAGCAATTTCTCCTCCTCCGGAGTCACCTAGTGCAG | 13300 fluorescence intensity (a.u.)
21 | AATTGATGTGGTCAATCCAGGCTTCCAGCCGATTGGTGGACGGAGTCACCTAGTGCAG | 4010 fluorescence intensity (a.u.)
22 | CCAAAATTGTACTGGGAACATGATTATTATAGCAGGCTCTCGGAGTCACCTAGTGCAG | 7300 fluorescence intensity (a.u.)
23 | CCTAATTATATGGACCTGATCCACACCGTACAAGCATATTCGGAGTCACCTAGTGCAG | 23400 fluorescence intensity (a.u.)
24 | GGATGATGATTTGGGCTGAACGCTACATGTCCAAAGAAGCCGGAGTCACCTAGTGCAG | 12100 fluorescence intensity (a.u.)
25 | CGTGGACATCACAATTATTGAATTTGGAGAACAAATTGGTCGGAGTCACCTAGTGCAG | 8910 fluorescence intensity (a.u.)
26 | GATAATTTGCCATTCTTTAGGGCCCGGTTCTTTTCTCCTTCGGAGTCACCTAGTGCAG | 14800 fluorescence intensity (a.u.)
27 | ATGGTTTATTGATAATTATGTGAAGTTTAGTTCTAGCCGACGGAGTCACCTAGTGCAG | 13500 fluorescence intensity (a.u.)

Row | Sequence | binding signal
28 | AAATAAATAATCAACTGGACTGCCGCTTATTACGGACCATCGGAGTCACCTAGTGCAG | 4150 fluorescence intensity (a.u.)
29 | CGGATCCCATTCAATCATTCATTCATGTCGGATTGATGCCCGGAGTCACCTAGTGCAG | 11800 fluorescence intensity (a.u.)
30 | TTAAACCATTGTAATTTAATATATAAACTTCAAATCTATCCGGAGTCACCTAGTGCAG | 3550 fluorescence intensity (a.u.)
31 | CTTAATTTGCAGCGCTAATAAGCTCTAGCTTTCTCTTCTTCGGAGTCACCTAGTGCAG | 14300 fluorescence intensity (a.u.)
32 | CAATCACTAATCACCTCACTTAAATTATGCTTAGCCGTTTCGGAGTCACCTAGTGCAG | 18400 fluorescence intensity (a.u.)
33 | ATTAGTTCTATCAAATCAATAATTGAATATATTATCATAACGGAGTCACCTAGTGCAG | 21300 fluorescence intensity (a.u.)
34 | GGGAGACGAGGTGTTAATTACTGCTCCTCTGTTTCAAATCCGGAGTCACCTAGTGCAG | 10500 fluorescence intensity (a.u.)
35 | TTAACATCAAAATTGAAAGTTTGGTTAAAATTAGAACGATCGGAGTCACCTAGTGCAG | 3820 fluorescence intensity (a.u.)
36 | TTTACTCCCGGTTTCTTAATTGTTTCTTAACCGCAGGAACCGGAGTCACCTAGTGCAG | 3790 fluorescence intensity (a.u.)
37 | AATGGAATATACTAATTAAATTGCATGGTTAGGGGTTAGGCGGAGTCACCTAGTGCAG | 8100 fluorescence intensity (a.u.)
38 | TTTCAAAGTTAACTAAGCAAATTAAAATTTTGGAAGTTTCCGGAGTCACCTAGTGCAG | 6630 fluorescence intensity (a.u.)
39 | TTAGATGTTAATAAATTTAGACACATATATATGTTTAGATCGGAGTCACCTAGTGCAG | 8540 fluorescence intensity (a.u.)
40 | TAGATACGAAAATTAATTGGAATTTTGGATTTGGATGGGACGGAGTCACCTAGTGCAG | 24500 fluorescence intensity (a.u.)
41 | ATAACAGTGATTGATCTGTTAAATATCCGATACGGGTAGGCGGAGTCACCTAGTGCAG | 65200 fluorescence intensity (a.u.)
42 | TTGATTATTGTATTTACTGGCTACAATGTTACCTATAGCTCGGAGTCACCTAGTGCAG | 22500 fluorescence intensity (a.u.)
43 | TACTTATAAAACTAATTACATAAATGAGATCTAATTCGCGCGGAGTCACCTAGTGCAG | 4070 fluorescence intensity (a.u.)
44 | CTGATTTGCAGTTCGTTCGTGCCTCTCACAATCAAACCCCCGGAGTCACCTAGTGCAG | 14300 fluorescence intensity (a.u.)
45 | GGTTAATTGTACCTGGTCGCCTGATCGCGTCACTTTACGCCGGAGTCACCTAGTGCAG | 44200 fluorescence intensity (a.u.)
46 | CTAGGCCTCAATGATGAGAATAATTTGATCACGCACATCACGGAGTCACCTAGTGCAG | 3300 fluorescence intensity (a.u.)
47 | CAATCCGTGATTAGAAACGAGATCATATAGCTATATGGATCGGAGTCACCTAGTGCAG | 29000 fluorescence intensity (a.u.)
48 | CATCACCAACCAATCAACGAACAGAGCTGGCGCCGTGCTCCGGAGTCACCTAGTGCAG | 10100 fluorescence intensity (a.u.)
49 | GAACCTTTTGATTGATTCTCGTCCTACACGCTTGAAGGCGCGGAGTCACCTAGTGCAG | 38200 fluorescence intensity (a.u.)
50 | ACAAATCAATCAATTATAAAGTTTTAAAATTTAATTTTAACGGAGTCACCTAGTGCAG | 26900 fluorescence intensity (a.u.)
51 | AGGGCCCTGATGATTAGCAACAAAAGCGGGTGCCTGCCGTCGGAGTCACCTAGTGCAG | 6840 fluorescence intensity (a.u.)
52 | CTTGATTCCTCTGTCTATTTAACGATTTGGACGAGGAAGCCGGAGTCACCTAGTGCAG | 25900 fluorescence intensity (a.u.)
53 | AATTACATTGACATGTCAATTTACTACATTTCTCTCTTCTCGGAGTCACCTAGTGCAG | 18300 fluorescence intensity (a.u.)
54 | TAAATTATAAATTATAGATAATATAGCATGTTTGCATGATCGGAGTCACCTAGTGCAG | 24100 fluorescence intensity (a.u.)
